Test results: PubChem BioAssay AID485281 (National Center for Advancing Translational Sciences (NCATS), 2010)
Where “and” joins values, the source holds several entries; their conditions need not be identical. Identical values can stand only once. Out of some 350,000 compounds screened, about 260 (0.074%) were called active. Inconclusive results, whose numbers are uncertain, are shown with a selection of clear calls. Calls follow the shape of the dose curve; as a rule, active = well fitted inhibition curve with a large enough effect; inconclusive = small, poorly fitted or top-dose-only effect; inactive = no such curve, though single readings can be large or run the other way. Potencies of inconclusive entries are doubtful fits and often do not repeat.

biological target: Ferritin light chain (Equus caballus) (UniProt P02791); assay: qHTS Assay for Identification of Novel General Anesthetics; settings: apoferritin/1-aminoanthracene competitive binding, fluorescence; series mostly up to 77.5 µM; also: nearly all actives have a fitted effect of over 20% in size
Outline: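 10 uM apoferritin + 50% sat. 1-AMA, PBS; cpd 10 min RT; Ex380/Em535 endpoint; normalized to free probe vs complex; 4-param Hill fit; propofol titration as pos. ctrl.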
Potency is read from the fitted curve at half-maximal effect; tags tell the direction and shape of the fitted curve.

UniProt P02791, sequence (P02791 whole entry, looked up): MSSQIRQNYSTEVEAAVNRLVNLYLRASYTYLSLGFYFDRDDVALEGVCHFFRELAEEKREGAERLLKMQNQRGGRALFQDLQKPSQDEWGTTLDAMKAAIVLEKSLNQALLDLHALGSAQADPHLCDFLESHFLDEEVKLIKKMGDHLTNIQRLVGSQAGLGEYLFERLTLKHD

Question: How did the Potency turn out when `COC(=O)c1ccc(COc2cc(C)cc3oc(=O)c4c(c23)CCCC4)o1` was run?
Answer: The Potency was inconclusive: 11.2 µM [inhibitor, full curve, poor fit].

Question: With `Cc1ccc(-c2nc(CS(=O)CC(=O)NC3CCCC(C)C3C)c(C)o2)cc1` (stereo not given) as the molecule, how does the Potency read?
Answer: Its Potency is inconclusive: 12.6 µM [inhibitor, partial curve].

Question: How did the Potency turn out when `N#Cc1c(/N=C/C2C(=O)NC(=S)NC2=O)sc2c1CCCC2` was run?
Answer: Its Potency is inconclusive: 39.8 µM [inhibitor, single point].

Question: With `CCOC(=O)c1c(-n2c(C)cc(/C=C3\C(=O)NC(=O)N(C)C3=O)c2C)sc2c1CCCC2` as the molecule, how does the Potency read?
Answer: The Potency was “inactive”.

Question: How did the Potency turn out when `CCCCCCN=C(C)c1c(O)n(Cc2ccccc2)c(=O)[nH]c1=O` was run?
Answer: Its Potency is inconclusive: 39.8 µM [inhibitor, partial curve].

Question: `COc1cccc(CN2CCN(C(=O)COc3ccc4ccccc4c3)CC2)c1` was tested. Which Potency did it give?
Answer: Its Potency is inconclusive: 39.8 µM [inhibitor, partial curve].

Question: With `CNc1ccc2oc(C[C@H]3O[C@@]4(CC[C@H]3C)O[C@H]([C@H](C)C(=O)c3ccc[nH]3)[C@H](C)C[C@H]4C)nc2c1C(=O)O` as the molecule, how does the Potency read?
Answer: Its Potency is “inactive”.

Question: How did the Potency turn out when `COC(=O)C(O)C(O)(CCC(C)C)C(=O)OC1C(OC)=CC23CCCN2CCc2cc4c(cc2C13)OCO4` (stereo not given) was run?
Answer: The Potency was “inactive”.

Question: How did the Potency turn out when `O/N=C1/C(=C\c2ccccc2)N2CCC1CC2` was run?
Answer: Its Potency is inconclusive: 25.1 µM [inhibitor, partial curve].

Question: For `COC(=O)[C@]12OC[C@]34C([C@@H](O)[C@@H]1O)[C@]1(C)CC(=O)C(O)=C(C)[C@@H]1C[C@H]3OC(=O)[C@H](O)[C@@H]24` (stereo not given in full), which Potency is on record?
Answer: Its Potency is “inactive”.

Question: How did the Potency turn out when `CCCCn1c(O)c(C(C)=NCCN2CCCCC2)c(=O)[nH]c1=O` was run?
Answer: Its Potency is inconclusive: 50.1 µM [inhibitor, single point].

Question: With `CCCCC1(CCCC)C(=O)NC(=Nc2cccc(C)c2)NC1=O` as the molecule, how does the Potency read?
Answer: The Potency was inconclusive: 35.5 µM [inhibitor, partial curve].

Question: `Cc1ccsc1C(=O)C1CCCN(Cc2ccccc2O)C1` (stereo not given) was tested. Which Potency did it give?
Answer: The Potency was inconclusive: 28.2 µM [inhibitor, single point].

Question: Which Potency does the source give for `COc1cccc(N2C(=O)NC(=O)/C(=C/c3ccc([N+](=O)[O-])s3)C2=O)c1` here?
Answer: Its Potency is “inactive”.

Question: `Cc1ccc(NC(=O)OC(C)CNC(=O)Oc2cccc(C)c2)cc1` (stereo not given) was tested. Which Potency did it give?
Answer: Its Potency is inconclusive: 28.2 µM [inhibitor, partial curve].

Question: For `O=C(COc1ccc(Br)cc1)N1CCN(Cc2ccncc2)CC1`, which Potency is on record?
Answer: Its Potency is “inactive”.

Question: Which Potency does the source give for `Cc1cc([N+](=O)[O-])c(Cl)cc1NC(=O)C(C)C` here?
Answer: The Potency was “inactive”.

Question: `CCCCCCOc1ccc(C(=O)n2cnc(N)n2)cc1` was tested. Which Potency did it give?
Answer: Its Potency is inconclusive: 8.91 µM [inhibitor, partial curve].

Question: With `Cc1ccc2c(c1)CC1(CN2C)C(=O)NC(=O)N(c2ccc(C)c(C)c2)C1=O` (stereo not given) as the molecule, how does the Potency read?
Answer: The Potency was inconclusive: 31.6 µM [inhibitor, single point].

Question: For `CCN(CC)C(=O)c1ccc(NC(=O)COc2ccc([N+](=O)[O-])cc2Cl)cc1`, which Potency is on record?
Answer: Its Potency is inconclusive: 31.6 µM [inhibitor, partial curve].

Question: How did the Potency turn out when `COc1ccccc1-n1c(O)c(C=NCCCn2ccnc2)c(=O)[nH]c1=O` was run?
Answer: Its Potency is “inactive”.

Question: How did the Potency turn out when `Cc1cc(O)c2c3c(c(=O)oc2c1)CCC(C)C3` (stereo not given) was run?
Answer: Its Potency is “inactive”.

Question: For `CC(=O)N(C1=NCCCS1)c1ccc(Cl)cc1`, which Potency is on record?
Answer: Its Potency is inconclusive: 20 µM [inhibitor, partial curve].

Question: `CC(C)(C)c1ccc(CN2C(=O)CN=C(c3ccccc3)c3ccccc32)cc1` was tested. Which Potency did it give?
Answer: Its Potency is inconclusive: 6.31 µM [inhibitor, full curve].

Question: Which Potency does the source give for `CC[C@H](C)[C@H](NC(=O)[C@H](CCCN=C(N)N)NC(=O)[C@H](CCCN=C(N)N)NC(=O)[C@H](CC(C)C)NC(=O)[C@H](Cc1ccccc1)NC(=O)CNC(=O)CNC(=O)[C@@H](N)Cc1ccc(O)cc1)C(=O)O` here?
Answer: Its Potency is “inactive”.

Question: Which Potency does the source give for `CC(C)=CCC[C@]1(C)[C@@H](CC=C(C)C)C[C@@]2(CC=C(C)C)C(=O)[C@]1(C(=O)C(C)C)C(=O)C(CC=C(C)C)=C2O` here?
Answer: Its Potency is inconclusive: 28.2 µM [inhibitor, partial curve].

Question: With `Fc1ccccc1CCNCc1cccc(Cl)c1Cl` as the molecule, how does the Potency read?
Answer: Its Potency is inconclusive: 20 µM [inhibitor, partial curve].

Question: `O=C1NC(=O)C(=Cc2cccc(OCCOc3ccccc3)c2)C(=O)N1` was tested. Which Potency did it give?
Answer: The Potency was inconclusive: 35.5 µM [inhibitor, single point].

Question: Which Potency does the source give for `CCOc1ccc(N2C(=O)NC(=O)/C(=C\c3ccc(N4CCCCC4)o3)C2=O)cc1` here?
Answer: The Potency was “inactive”.

Question: `Cc1oc(-c2ccccc2)nc1CN1C(=O)CN=C(c2ccccc2)c2ccccc21` was tested. Which Potency did it give?
Answer: The Potency was inconclusive: 15.8 µM [inhibitor, partial curve].

Question: For `O=C(c1ccccc1)C(CN1CCCC1)c1ccccc1` (stereo not given), which Potency is on record?
Answer: Its Potency is inconclusive: 31.6 µM [inhibitor, single point].

Question: With `CC(=O)NC(Cc1ccc(N(CCCl)CCCl)cc1)C(=O)NC(C(=O)O)C(C)C` (stereo not given) as the molecule, how does the Potency read?
Answer: Its Potency is “inactive”.

Question: `NCCCP(=O)(O)CC1CCCCC1` was tested. Which Potency did it give?
Answer: The Potency was “inactive”.

Question: With `COc1ccc(O)c(C(C)(C)C)c1` as the molecule, how does the Potency read?
Answer: The Potency was inconclusive: 14.1 µM [inhibitor, partial curve] and inconclusive: 22.4 µM [inhibitor, partial curve].

Question: For `Cc1ccc(-c2nc3ccccc3c(=O)n2-c2ccc(O)cc2)cc1`, which Potency is on record?
Answer: The Potency was inconclusive: 35.5 µM [inhibitor, partial curve].

Question: Which Potency does the source give for `O=C(c1cn(Cc2ccccc2)c2ccccc12)N1CCCCC1` here?
Answer: The Potency was inconclusive: 31.6 µM [inhibitor, partial curve].

Question: With `CCCCCC(=O)N[C@@H](c1ccccc1)[C@@H](O)C(=O)O[C@H]1C[C@@]2(O)[C@@H](OC(=O)c3ccccc3)C3[C@](C)(C(=O)[C@H](O)C(=C1C)C2(C)C)[C@@H](OC1OCC(O)C(O)C1O)C[C@H]1OC[C@@]31OC(C)=O` (stereo not given in full) as the molecule, how does the Potency read?
Answer: Its Potency is inconclusive: 28.2 µM [inhibitor, partial curve].

Question: Which Potency does the source give for `Cc1cc2ccccc2n1-c1ccc(C(=O)N2CCC(C(=O)NCc3ccc(Cl)cc3)CC2)s1` here?
Answer: Its Potency is inconclusive: 3.55 µM [inhibitor, partial curve].

Question: `Cc1c(N=Nc2c(O)n(Cc3ccccc3)c(=O)[nH]c2=O)c(=O)n(-c2ccccc2)n1C` was tested. Which Potency did it give?
Answer: The Potency was “inactive”.

Question: For `CCOC(=O)C(O)(c1ccc(N)c(OC)c1)C(F)(F)F` (stereo not given), which Potency is on record?
Answer: Its Potency is inconclusive: 22.4 µM [inhibitor, partial curve].
